PubChem BioAssay AID1918952 (Molecular Pharmacology Branch, DTP, NCI, 2023)
For part of its entries the source gives two or more results. The other results are left out here. An entry can have further records. Results that share an entry are repeats across runs, samples, wells, individuals or studies. Counts like (3×) stand for listed records that agree.

System: LG0703-F948-PDC complex spheroid viability
Assay: Anticancer human tumor LG0703-F948-PDC patient-derived lung adenocarcinoma cell line growth inhibition
Details: stronger effect = lower value
Text: Multicellular complex tumor spheroid response to LSD1 Inhibitor Iadademstat in combination with a variety of drugs and investigational agents in selected tumor cell lines
The current study was undertaken to assess response to LSD1 inhibitors in combination with standard-of-care drugs and investigational agents in solid tumor complex spheroid models as well as in the K-562 leukemia. Complex spheroids include a stromal component modeled by human endothelial cells (HUVEC) and fibroblasts modeled by human mesenchymal stem cells (MSCs). The concentration ranges selected for each drug and investigational agent were based upon clinically achievable concentrations if the clinical Cmax of the agent was known.
Compounds. The drugs and investigational agents used in this study are listed on Table 1. All of the agents used, including staurosporine (NSC755774) and gemcitabine (NSC613327), were obtained from the Developmental Therapeutics Program, NCI. FDA-approved anticancer drugs are available from the NCI at http://dtp.nci.nih.gov/branches/dscb/oncology_drugset_explanation.html. Drugs and investigational agents were >95% pure by proton nuclear magnetic resonance (NMR) and liquid chromatography/mass spectrometry (LC/MS). Stock solutions were prepared at 400x in DMSO, stored at -70 degrees C, and diluted in fresh medium prior to their use. The final concentration of DMSO in cell culture wells never exceeded 0.25% (v/v). The FDA-approved anticancer drug set is available from the Developmental Therapeutics Program at https://dtp.cancer.gov/organization/dscb/obtaining/available_plates.htm. All drugs and investigational agents were tested over a range starting from a high concentration at or near the clinical Cmax and decreasing in half-log increments. If the clinical Cmax for an agent had not been determined, the highest concentration tested was 10 microM.
Cell Lines. The patient-derived cancer cell (PDC) lines: 292921-168-R-J2-PDC, K24384-001-R-PDC, and 521955-158-R2-J5-PDC pancreatic carcinomas, 556581-035-R-J1 ovarian carcinoma, 324938-238-R-J1-PDC, 855422-203-R-J1-PDC and 883617-216-R-J1-PDC urothelial bladder carcinomas, 743489-274-T-PDC renal cell carcinoma, 138582-R-J1 Merkel cell tumor, K60290-347-R-J1 and K57222-313-R-J1-PDC glioblastomas, 653999-131-R-J2-PDC, LG0703-F948-PDC, and 349418-098-R-PDC non-small cell lung carcinomas, 885512-296-R-J2-PDC, 171881-019-R-J1-PDC breast carcinomas and 186277-243-T-J2-PDC and 233499-124-R-J2-PDC colon carcinomas were obtained from the NCI Patient-Derived Models Repository (PDMR, https://pdmr.cancer.gov). The established cell lines NCI/ADR-RES (RRID:CVCL_14520 and OVCAR-5 (RRID:CVCL_1628) ovarian carcinomas, 786-O (RRID:CVCL_1051) and A498 (RRID:CVCL_A498) renal cell carcinoma, NCI-H211 (ATCC, cat. CRL-5824; RRID:CVCL_1529), NCI-H196 (ATCC, cat. CRL-5823, RRID:CVCL_1509), SW 1271 (ATCC, cat. CRL-2177, RRID:CVCL_1716) and NCI-H1876 (ATCC, cat. CRL-5902, RRID:CVCL_1503) small cell lung carcinomas, MDA-MB-231 (RRID:CVCL_0062) and MDA-MB-468 (RRID:CVCL_0419)breast carcinomas (10-12). Pooled donor human umbilical vein endothelial cells (HUVEC, Lonza, cat. CC-2519) and human mesenchymal stem cells (hMSC, Lonza, cat. PT-2501) were purchased from Lonza (Walkersville, MD).
Cell Culture. All cells were maintained in an incubator at 37 degrees C and 5% CO2 with 95% humidity. The PDC lines were cultured according to standard operating procedures established by the NCI PDMR (https://pdmr.cancer.gov). Briefly all PDCs were thawed and cultured in Matrigel-coated flasks prepared with a working solution of 1X Ham's F-12 nutrient mix, without supplementation (Invitrogen, Waltham, MA, cat. 11765054), 100 U/mL penicillin-streptomycin (Invitrogen, cat. 15140122), and 2.5% Matrigel (Corning Inc., Corning, NY, cat. 354248) for the first three passages. […]
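Also: spheroids exposed to agents for seven days before readout; 100% = DMSO vehicle control wells as normalization base.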

| SMILES | viability, T/C (compound alone 0.1 µM) | viability, T/C (compound alone 1 µM) | viability, T/C (compound alone 3.16 µM) | viability, T/C (compound alone 10 µM) | viability, T/C (compound alone 0.316 µM) |
| --- | --- | --- | --- | --- | --- |
| NC1CCC(NC2CC2c2ccccc2)CC1 (configuration not stated) | 88.1, 107, 101 (2×), 87.6, 102 (2×), 96.4, 116, 103 (2×), 97.2, 87.5, 94 (2×), 104, 93, 100, 105, 98, 93.5, 108, 91.6, 96.8% | 101 (2×), 104 (2×), 109 (3×), 121 (2×), 117, 120, 97.1, 90.5, 115, 114 (3×), 112, 105 (2×), 102, 110, 119, 98.2, 96.6% | 127, 119, 117, 111 (3×), 123, 122, 135, 103, 108, 113 (3×), 116 (2×), 118 (3×), 124 (2×), 114, 120 (2×), 99.5% | 115, 118, 107 (2×), 99.2, 133, 108, 126, 93.7, 114, 104 (2×), 103, 99.6, 106 (2×), 101, 119, 116, 102, 111, 105, 97.1% | – |
| NC1CC1c1ccc(-c2cccc(O)c2)cc1 (configuration not stated) | – | 98.4, 114, 102, 95.9, 97.8, 94.5, 104, 90.8, 100 (2×), 91.6 (2×), 92.8, 91.2, 105, 96, 99.2, 82.3, 90, 95.3, 108, 101, 94.8, 95.4% | – | 81, 100, 111, 89.5, 94.5, 103 (2×), 98, 90, 98.6, 97.6, 88.5, 83.1, 90.6, 92.4, 89.7, 104, 91.1, 89.4, 110, 97, 93, 102 (2×), 97.2% | 100, 108 (2×), 99.8, 97.4, 107 (2×), 112 (2×), 116, 97.9 (2×), 105, 98.8, 111 (2×), 88.9, 98.2, 120, 99, 98.7, 96.2, 110, 98.3, 102% |
